# Measurements taken from PubChem BioAssay AID1347073 (National Center for Advancing Translational Sciences (NCATS), 2019).
# Screen size: about 45,000 compounds; about 200 (0.44%) were called active. About 7% were inconclusive and are not listed. Calls follow the shape of the dose curve; as a rule, active = well fitted activation curve with a large enough effect; inconclusive = small, poorly fitted or top-dose-only effect; inactive = no such curve, though single readings can be large or run the other way. The list shows a part of the results.
# Experiment: qHTS of TDP-43 Inhibitors: NCGC Sytravon Library Screen; also: 0% is about no effect; nearly all actives have a fitted effect of over 55% in size
# Settings: yeast TDP-43 toxicity rescue, BacTiter-Glo growth, 24 h; series mostly up to 46.1 µM; growth rescue (activation): at the top concentration
# From the text: The goal of this project is to identify new chemical probes capable of reversing the toxicity associated with TDP-43 which is associated with frontotemporal lobar degeneration and amyotrophic lateral sclerosis. These compounds will provide a complementary approach to deciphering the tangled mechanisms of toxicity and protection that we have uncovered through genome-wide genetic screens and are beginning to uncover in a large-scale proteomics analysis with mass spectroscopy. To this end, a miniaturized assay was developed to be screened against the Molecular Libraries Small Molecule Repository (MLSMR) to discover TDP-43 inhibitors. Please note that in the set-up this yeast-based assay compounds that inhibit as TDP-43, have a read-out as activators. NIH Chemical Genomics Center [NCGC] NIH Molecular Libraries Probe Centers Network [MLPCN] Assay Submitter (PI): Susan Lindquist, Whitehead Institute/MIT MLPCN Grant: R21 NS060957
# Dispense 2.5 microL yeast galactose medium per 1536-well plate, pin compound, dispense 2.5 microL TDP-43 expressing yeast in galactose medium at OD600=0.02 (pregrown in raffinose medium to mid-log phase) per well, incubate for 24 hr at 30 deg C, and cell growth will be measured using 5 microL of Bactiter/Glo reagent to entire plate and read using Luminescence Protocol in ViewLux.
row,SMILES,growth rescue (activation)
1,CCNc1nc(NC(C)(C)C)nc(SCC(N)=O)n1,inactive: 7.22%
2,COc1ccc(S(=O)(=O)N2CCC(n3cnc4ccccc43)CC2)cc1,inactive: -12.6%
3,Cc1nc2ccccn2c1C(=O)NN,inactive: 3.15%
4,Cc1cccc(Nc2ncnc(N)c2[N+](=O)[O-])n1,inactive: 11%
5,O=C(Nc1cccc2nsnc12)c1ccc(-c2cccc(Cl)c2)o1,inactive: 11.5%
6,CN(C)CCCNS(=O)(=O)c1ccc(NC2CCCCCC2)c([N+](=O)[O-])c1,inactive: 3.92%
7,CCC1CC2(C)NC(=O)c3c(sc4c3CC(C)(C)OC4)N2C1=O (stereo not drawn),inactive: 7.13%
8,O=C(Nc1ccccc1C(=O)Nc1ccncc1)c1ccc([N+](=O)[O-])cc1,inactive: 15.7%
9,CC(=O)Nc1ccc(CN2CCCC(C(=O)c3ccc(C(F)(F)F)cc3)C2)cc1 (stereo not drawn),inactive: 8.1%
10,CCNC(=O)c1sc(=S)n(CC)c1N,inactive: 3.55%
11,CC1CCCC(NC(=O)CN2C(=O)NC(c3ccccc3)(c3ccccc3)C2=O)C1C (stereo not drawn),inactive: 19.5%
12,COc1cccc(NC(=O)c2cc([N+](=O)[O-])ccc2N2CCN(C)CC2)c1,inactive: 8.67%
13,CC(C)OCc1ccc(C(=O)N2CCN(CC(=O)N3CCCC3)CC2)cc1,inactive: 29.5%
14,COc1cc(NC(=O)C(=O)NCCN(C)C)c(OC)cc1Cl,inactive: -25.6%
15,CCN(CC(=O)NCc1cccs1)C(=O)Cc1ccc(Cl)c(Cl)c1,inactive: -9.12%
16,COc1cccc(C(=O)Nc2cccnc2)c1OC,inactive: 12.6%
17,Cn1c(/C(C#N)=C(\O)c2ccc([N+](=O)[O-])cc2)nc2ccccc21,inactive: -4.11%
18,O=C(Nc1ccc(Cl)cc1)Nc1cccc(C(=O)O)c1,inactive: 3.41%
19,CC(=O)NS(=O)(=O)c1ccc(NS(=O)(=O)c2ccc3ccccc3c2)cc1,inactive: 1.72%
20,Cc1ccc(S(=O)(=O)N2CCN(C(=O)CSc3ccc(Cl)cc3)CC2)cc1,inactive: 6.51%
21,O=C(NCc1ccc(N2CCCC2=O)cc1)C1CCC(=O)N(Cc2ccccc2F)C1 (stereo not drawn),inactive: -1.9%
22,CCC(C)(C)NC(=O)C(c1cccc(OC)c1)N(C(=O)CNC(=O)c1cccs1)c1cccnc1 (stereo not drawn),inactive: -0.541%

row,SMILES,growth rescue (activation)
1,CCCN(CC1CC1)C(=S)NC(=O)c1ccc(S(=O)(=O)N2CCOCC2)cc1,inactive: 21.7%
2,O=C1Nc2ccc(S(=O)(=O)NCc3ccccn3)c3cccc1c23,inactive: -25.8%
3,CN(C)S(=O)(=O)c1ccc(Cl)c(C(=O)NCC2CCCCC2)c1,inactive: 12.5%
4,CN(C)C(CNc1ccc(C(N)=O)cc1[N+](=O)[O-])c1ccccc1 (stereo not drawn),inactive: 6.07%
5,CCCn1c(-c2cccs2)nc2c1c(=O)[nH]c(=O)n2Cc1ccccc1,inactive: 7.89%
6,Cc1cc(C(=O)Cn2nc(C(=O)O)c3ccccc3c2=O)c(C)n1CCc1ccc(F)cc1,inactive: 19.9%
7,Cn1c(COc2cccc3cccnc23)nnc1SCC(=O)O,inactive: 4.59%
8,CCOc1ccc(Cc2nc(-c3nonc3N)no2)cc1OCC,inactive: 28.1%
9,Cc1ccc(S(=O)(=O)Nc2nc(C)cc(NN)n2)cc1,inactive: 9.31%
10,COC(=O)C(Cc1ccc(O)cc1)NC(=O)CCc1ccco1 (stereo not drawn),inactive: -18.3%
11,COc1cc(NC(=O)CNC(=O)Cn2c(C)cc3ccccc3c2=O)cc(OC)c1OC,inactive: 9.26%
12,COc1ccccc1P(=O)(Cc1ccccc1[N+](=O)[O-])c1ccccc1 (stereo not drawn),inactive: -5.11%
13,CCC(C)NS(=O)(=O)c1ccc(S(=O)(=O)N2CC=C(c3ccc(F)cc3)CC2)cc1 (stereo not drawn),inactive: 5.1%
14,CCN(C(=O)CSc1nnc(-c2cccs2)n1CC)C1CCS(=O)(=O)C1 (stereo not drawn),inactive: 12.6%
15,O=C(Nc1cccc(Cl)c1)c1ccc(F)c(S(=O)(=O)NCc2ccc3c(c2)OCO3)c1,inactive: -1.82%
16,C[N+]1(CC(=O)OCCCc2ccccc2)CCCC1,inactive: -5.01%
17,CCC(=O)N1N=C(c2cccs2)CC1c1ccco1 (stereo not drawn),inactive: 9.8%
18,CCCCN(C(=S)Nc1cccc(SC)c1)C1CCN(C(C)=O)CC1,inactive: -0.0565%
19,O=C(O)c1ccc2c(c1)C(=O)N(c1ccccc1-c1ccccc1)C2=O,inactive: -9.21%
20,O=C(CN1CCN(c2ccc([N+](=O)[O-])cc2Cl)CC1)N1CCOCC1,inactive: 5.63%
21,CCN(C(=O)C(C)OC(=O)c1nn(-c2ccccc2C(F)(F)F)cc1O)c1ccccc1 (stereo not drawn),inactive: 1.35%
22,O=C(Nc1ccccc1)c1cc(C2CCCCN2C(=O)c2ccccc2)on1 (stereo not drawn),inactive: 21.8%

row,SMILES,growth rescue (activation)
1,C=CCN(c1ccccc1)S(=O)(=O)c1cccc(C(=O)NCc2ccco2)c1,inactive: -11.3%
2,Cc1cc2nc(C(F)(F)F)[nH]c(=O)n2n1,inactive: 4.61%
3,Cc1cc(C)c(C(N)=O)c(SCC(=O)c2cc(C)c(C)cc2C)n1,inactive: 17.8%
4,CCOC(=O)/C=C/C(=O)OCC(=O)Nc1ccc(C)cc1,inactive: 0.0725%
5,CCOC(=O)c1sc2ncn(C(C)C(=O)OCC)c(=O)c2c1C (stereo not drawn),inactive: 18.1%
6,COc1cc2c(cc1OC)-c1cc(Nc3ccccc3C)nc(=O)n1CC2,inactive: 5.57%
7,CC1CCCC(C)N1C(=O)COC(=O)c1ccco1 (stereo not drawn),inactive: 17.6%
8,COc1cccc(C(O)c2nc(-c3ccc(N(C)C)cc3)cs2)c1 (stereo not drawn),inactive: 29.6%
9,COc1cccc(C(=O)OCC(=O)NC2CCCc3ccccc32)c1O (stereo not drawn),inactive: 11.7%
10,Cc1ccc(/C=C(\C#N)C(=O)NCCN2CCOCC2)cc1,inactive: 0.707%
11,CCc1nc2ccc(C(=O)NCCCN3CCCC3=O)cn2c1N(CC)CCOC,inactive: 10.3%
12,COc1cc(/C=C/C(=O)O)cc(S(=O)(=O)NNC(=O)c2cc(C)oc2C)c1OC,inactive: -20.8%
13,Cc1ccc(CNC(=O)CCC2CCCN(Cc3cccc4c3OCO4)C2)o1 (stereo not drawn),inactive: -1.08%
14,CC(C)n1c(SCC(=O)N2CCN(C(=O)c3ccco3)CC2)nc2c1c(=O)n(C)c(=O)n2C,inactive: 5.17%
15,CCOCCCNC(=O)c1c(N)n(-c2ccc(S(N)(=O)=O)cc2)c2nc3ccccc3nc12,inactive: 10.4%
16,COC(=O)c1c(NC(=O)/C=C/c2ccc3c(c2)OCO3)sc(C)c1C,inactive: -5.5%
17,Cc1ccccc1-c1nc2c3c(-c4ccccc4)c(-c4ccccc4)oc3ncn2n1,inactive: 7.43%
18,CCc1sc(C(=O)NCCc2ccc(S(N)(=O)=O)cc2)cc1Br,inactive: -16.5%
19,Cc1ccc(CN2C(=O)CCC2C(=O)NCCN(CC(C)C)CC(C)C)cc1 (stereo not drawn),inactive: 27%
20,CCC(C)NC(=O)Cn1cnc2sc(C)c(S(=O)(=O)N3CCN(c4ncccn4)CC3)c2c1=O (stereo not drawn),inactive: 2.91%
21,CCn1nnc2cc(C(=O)O)ccc21,inactive: 1.78%
22,Nc1nonc1C(=O)N1CCCC1,inactive: 2.47%

row,SMILES,growth rescue (activation)
1,CN(Cc1ccccc1)C(=O)c1ccc(Nc2nc(C(N)COCc3ccccc3)cs2)nc1 (stereo not drawn),inactive: 12.1%
2,CC1CCCC(C)N1NC(=O)Cc1ccccc1 (stereo not drawn),inactive: -20.7%
3,Cc1[nH]c2ccccc2c1/C=N/NC(=O)CNC(=O)c1ccc2c(c1)OCCO2,inactive: -2.98%
4,C[C@H](NS(=O)(=O)c1ccc(Cl)cc1)C(=O)OCC(=O)NC(=O)Nc1ccc2c(c1)OCCO2,inactive: 4.92%
5,CCc1cccc(CC)c1N(COC)C(=O)Cn1cnc2ccccc21,inactive: 6.5%
6,CN(C)c1ccc(/C=C/c2ccncc2)cc1,inactive: -21.1%
7,COc1ccc(/C=C/C(=O)NC(=S)Nc2ccc(S(=O)(=O)Nc3cc(C)on3)cc2)cc1,inactive: -0.523%
8,N#C/C(=C\C=C\c1ccccc1)C(=O)N1CCCC1,inactive: -13.4%
9,CCc1cc2c(=O)c(-c3nc(C)cs3)c(CCCC(=O)O)oc2cc1O,inactive: 7.18%
10,CC(=O)/C=C1\N(C)c2ccc(C)cc2C1(C)C,inactive: 11.4%
11,O=C(c1ccccc1)c1ccc(OCC(O)CNC2CCCc3ccccc32)cc1 (stereo not drawn),inactive: -8.67%
12,O=C1OCC(c2ccc(Cl)s2)=C1c1ccccc1[N+](=O)[O-],inactive: -16.4%
13,COCc1nnc(NC(=O)C2CC(=O)N(CCc3ccc(F)cc3)C2)s1 (stereo not drawn),inactive: 0.994%
14,O=C(COC(=O)c1cccs1)Nc1cccc(S(=O)(=O)N2CCCCC2)c1,inactive: 21.6%
15,Cc1cnc(C(=O)OCC(=O)Nc2cc(Cl)ccc2C#N)cn1,inactive: 16.4%
16,CCOC(=O)c1ccc(NC(=S)NN)cc1,inactive: 15.4%
17,O=C(CN1C(=O)NC2(CCCCC2)C1=O)Nc1cc(C(F)(F)F)ccc1N1CCOCC1,inactive: 17.1%
18,CC(C)CN(CC(C)C)S(=O)(=O)N1CCC(C(=O)NCc2ccc3c(c2)OCO3)CC1,inactive: -1.71%
19,CC(OC(=O)c1cc(=O)[nH]c2ccccc12)C(=O)c1ccccc1 (stereo not drawn),inactive: -5.27%
20,O=C(Nc1cccc(Cl)c1)Nc1cc(S(=O)(=O)N2CCCCC2)ccc1Cl,inactive: -0.561%
21,CC1CCc2sc(C(=O)OCC(=O)NCc3ccc(F)cc3)cc2C1 (stereo not drawn),inactive: -2.78%
22,CC(OC(=O)C1=COCCO1)C(=O)c1ccc(Br)cc1 (stereo not drawn),inactive: 0.719%

row,SMILES,growth rescue (activation)
1,O=CN1CCN(C(=O)CN2C(=O)c3ccccc3C2=O)CC1,inactive: 8.49%
2,O=C(CCc1ccccc1)NNC(=O)c1ccc(Br)cc1,inactive: -21.4%
3,COc1ccc(OC)c(NC(=O)C(=S)NC2CCCCC2)c1,inactive: 25%
4,Cn1cnnc1SCC(=O)N1CCC(Cc2ccccc2)CC1,inactive: 22.7%
5,CCOc1ccccc1-n1c(=S)sc2c(=O)n(-c3ccccc3)c(=S)[nH]c21,inactive: 3.27%
6,CN(C)C(=O)CSc1nc2cc(S(=O)(=O)N3CCOCC3)ccc2o1,inactive: 3.18%
7,O=C(OCC(=O)N1CCCC1)c1ccc(O)cc1,inactive: -1.09%
8,CN1CCN(S(=O)(=O)c2ccc(NC(=S)NC(=O)C3CCCCC3)cc2)CC1,inactive: 1.17%
9,O=C(CCc1ccccc1)Nc1ncc2c(n1)CCCC2=O,inactive: -2.34%
10,O=C1C2C3C=CC(C4CC34)C2C(=O)N1/N=C/c1ccc([N+](=O)[O-])s1 (stereo not drawn),inactive: 11.1%
11,CCc1nc(SCC(=O)Nc2cccc3ccccc23)[nH]c(=O)c1C,inactive: -6.15%
12,CCC(Sc1nc2cc(OC)c(OC)cc2c(=O)n1CCc1ccc(S(N)(=O)=O)cc1)C(=O)NCCOC (stereo not drawn),inactive: 8.77%
13,Cc1nc2c(c(=O)n1CCC(C)C)c1nc3ccccc3nc1n2CC1CCCO1 (stereo not drawn),inactive: -7.82%
14,Cc1c(C(=O)N/N=C/c2cccnc2)sc(N)c1C#N,inactive: 9.58%
15,CC1(C)OC(=O)C(=CSc2ccc(C(C)(C)C)cc2)C(=O)O1,inactive: -0.58%
16,Cn1c(=O)c2c(-c3ccccc3)n(Cc3cccnc3)cc2n(C)c1=O,inactive: -7.72%
17,COc1ccc(CN2CCNC(=O)C2CC(=O)NCCSc2nccn2C)c(OC)c1 (stereo not drawn),inactive: 8.28%
18,COc1cc(C(=O)OCC(=O)N2CCOCC2)c([N+](=O)[O-])cc1OC,inactive: 4.46%
19,CN(Cc1ccccc1)C(=C(Cl)Cl)/C(=C1/NCCN1C)[N+](=O)[O-],inactive: -3.7%
20,O=C1c2ccc(Oc3ccc([N+](=O)[O-])cc3)cc2C(=O)N1c1ccncc1,inactive: 0.501%
